{"source": "patent US8828401B2", "about": "“Cytotoxic peptides and antibody drug conjugates thereof” (Pfizer Inc., priority 2011, dated 2014)", "molecules": {"B1": {"name": "hu28-vc0101: humanized anti-Notch antibody hu28 conjugated to mcValCitPABC-#54 (conjugate)", "heavy": "EVQLVESGGGLVQPGGSLRLSCAASGFTFRDYGMTWVRQAPGKGLEWVAYISSGSNYIYYAEAVKGRFTISRDNAKNSLYLQMNSLRAEDTAVYYCARRGPFVLDAWGQGTLVTVSS[human IgG1 constant region left out]", "light": "DIQMTQSPSSLSASVGDRVTITCKASQSINRYLHWYQQKPGKAPKLLIYNANGLQTGVPSRFSGSGSGTDFTLTISSLQPEDFATYYCLQHNTWPDTFGGGTKVEIKRTVAAPSVFIFPPSDEQLKSGTASVVCLLNNFYPREAKVQWKVDNALQSGNSQESVTEQDSKDSTYSLSSTLTLSKADYEKHKVYACEVTHQGLSSPVTKSFNRGEC"}}, "key": {"[1]": {"test_system": "37622A1 NSCLC xenografts", "experiment": "37622A1 NSCLC patient-derived xenografts with anti-Notch ADCs", "assay_type": "in vivo, nude (Nu/Nu) female mice", "settings": "for tumor volume (mm^3 ± SEM): 3 mg/kg Q4dx4", "protocol": "(§1) Humanized anti-Notch antibodies, hu28 and hu75, and rat-human chimeric anti-Notch antibodies, ch28 and ch75, were conjugated to various linker-payload combinations and tested in 37622A1 non-small cell lung cancer (NSCLC), HCC2429 lung cancer, MDA-MB-468 breast cancer and N87 gastric cancer xenograft models. For each model described below the first dose was given on Day 0. The tumors were measured at least once a week and their volume was calculated with the formula: tumor volume (mm^3)=0.5×(tumor width^2)(tumor length). The mean tumor volumes (±S.E.M.) for each treatment group were calculated having a maximum of 10 animals and a minimum of 6 animals to be included.\nThe effects of anti-Notch ADCs were examined in immunodeficient mice on the in vivo growth of human tumor xenografts that were established from fragments of freshly resected 37622A1 NSCLC tumors obtained in accordance with appropriate consent procedures (Asterand). The 37622A1 NSCLC patient-derived xenografts were subcutaneously passaged in vivo as fragments from animal to animal in nude (Nu/Nu) female mice. When the tumors reached a volume of 150 to 300 mm^3, they were staged to ensure uniformity of the tumor size among various treatment groups. The 37622A1 NSCLC model was dosed intraveneously four times every four days (Q4dx4) with PBS vehicle, humanized anti-Notch ADCs, control huNeg-8.8 ADCs and cisplatin at the doses provided in Table 11."}, "[2]": {"test_system": "N87 gastric xenografts", "experiment": "N87 gastric xenografts with anti-Notch ADCs", "assay_type": "in vivo, nude (Nu/Nu) female mice", "protocol": "as §1\nSimilar in vivo experiments were performed with the N87 gastric cancer cell line as described above. […] When the tumors reached a volume of 250 to 450 mm^3, the tumors were staged to ensure uniformity of the tumor mass among various treatment groups. The N87 gastric model was dosed intraveneously Q4dx4 with PBS vehicle, humanized anti-Notch ADCs, control huNeg-8.8 ADCs and cisplatin at the doses provided in Tables 16 and 17."}}, "data": [{"molecule": "B1", "values": [{"measurement": "tumor volume (mm^3 ± SEM)", "setting": "[1]; DAY 74", "result": "331 ± 160", "unit": "mm^3"}, {"measurement": "tumor volume (mm^3 ± SEM)", "setting": "[1]; DAY 77", "result": "422 ± 210", "unit": "mm^3"}, {"measurement": "tumor volume (mm^3 ± SEM)", "setting": "[1]; DAY 81", "result": "510 ± 248", "unit": "mm^3"}, {"measurement": "tumor volume (mm^3 ± SEM)", "setting": "[1]; DAY 84", "result": "622 ± 322", "unit": "mm^3"}, {"measurement": "tumor volume (mm^3 ± SEM)", "setting": "[1]; DAY −1", "result": "186 ± 13", "unit": "mm^3"}, {"measurement": "effect on growth of 37622A1 NSCLC xenografts (in words)", "setting": "[1]; Q4dx4, doses of Table 11", "result": "inhibited growth of 37622A1 NSCLC xenografts"}, {"measurement": "tumor volume (mm^3 ± SEM)", "setting": "[2]; Dose 1 mg/kg Q4dx4 iv, DAY 0", "result": "321 ± 21", "unit": "mm^3"}, {"measurement": "tumor volume (mm^3 ± SEM)", "setting": "[2]; Dose 1 mg/kg Q4dx4 iv, DAY 4", "result": "369 ± 18", "unit": "mm^3"}, {"measurement": "tumor volume (mm^3 ± SEM)", "setting": "[2]; Dose 1 mg/kg Q4dx4 iv, DAY 7", "result": "429 ± 43", "unit": "mm^3"}, {"measurement": "tumor volume (mm^3 ± SEM)", "setting": "[2]; Dose 1 mg/kg Q4dx4 iv, DAY 11", "result": "304 ± 30", "unit": "mm^3"}, {"measurement": "tumor volume (mm^3 ± SEM)", "setting": "[2]; Dose 1 mg/kg Q4dx4 iv, DAY 14", "result": "282 ± 25", "unit": "mm^3"}, {"measurement": "tumor volume (mm^3 ± SEM)", "setting": "[2]; Dose 1 mg/kg Q4dx4 iv, DAY 18", "result": "263 ± 24", "unit": "mm^3"}, {"measurement": "tumor volume (mm^3 ± SEM)", "setting": "[2]; Dose 1 mg/kg Q4dx4 iv, DAY 21", "result": "227 ± 23", "unit": "mm^3"}, {"measurement": "tumor volume (mm^3 ± SEM)", "setting": "[2]; Dose 1 mg/kg Q4dx4 iv, DAY 26", "result": "205 ± 32", "unit": "mm^3"}, {"measurement": "tumor volume (mm^3 ± SEM)", "setting": "[2]; Dose 1 mg/kg Q4dx4 iv, DAY 29", "result": "180 ± 30", "unit": "mm^3"}, {"measurement": "tumor volume (mm^3 ± SEM)", "setting": "[2]; Dose 1 mg/kg Q4dx4 iv, DAY 33", "result": "211 ± 43", "unit": "mm^3"}, {"measurement": "tumor volume (mm^3 ± SEM)", "setting": "[2]; Dose 1 mg/kg Q4dx4 iv, DAY 36", "result": "215 ± 42", "unit": "mm^3"}, {"measurement": "tumor volume (mm^3 ± SEM)", "setting": "[2]; Dose 1 mg/kg Q4dx4 iv, DAY 39", "result": "261 ± 54", "unit": "mm^3"}, {"measurement": "tumor volume (mm^3 ± SEM)", "setting": "[2]; Dose 1 mg/kg Q4dx4 iv, DAY 42", "result": "283 ± 52", "unit": "mm^3"}, {"measurement": "tumor volume (mm^3 ± SEM)", "setting": "[2]; Dose 1 mg/kg Q4dx4 iv, DAY 47", "result": "262 ± 64", "unit": "mm^3"}, {"measurement": "tumor volume (mm^3 ± SEM)", "setting": "[2]; Dose 1 mg/kg Q4dx4 iv, DAY 53", "result": "302 ± 75", "unit": "mm^3"}, {"measurement": "tumor volume (mm^3 ± SEM)", "setting": "[2]; Dose 1 mg/kg Q4dx4 iv, DAY 62", "result": "415 ± 111", "unit": "mm^3"}, {"measurement": "tumor volume (mm^3 ± SEM)", "setting": "[2]; Dose 1 mg/kg Q4dx4 iv, DAY 70", "result": "521 ± 135", "unit": "mm^3"}, {"measurement": "tumor volume (mm^3 ± SEM)", "setting": "[2]; Dose 3 mg/kg Q4dx4 iv, DAY 0", "result": "326 ± 13", "unit": "mm^3"}, {"measurement": "tumor volume (mm^3 ± SEM)", "setting": "[2]; Dose 3 mg/kg Q4dx4 iv, DAY 4", "result": "339 ± 11", "unit": "mm^3"}, {"measurement": "tumor volume (mm^3 ± SEM)", "setting": "[2]; Dose 3 mg/kg Q4dx4 iv, DAY 7", "result": "302 ± 10", "unit": "mm^3"}, {"measurement": "tumor volume (mm^3 ± SEM)", "setting": "[2]; Dose 3 mg/kg Q4dx4 iv, DAY 11", "result": "182 ± 14", "unit": "mm^3"}, {"measurement": "tumor volume (mm^3 ± SEM)", "setting": "[2]; Dose 3 mg/kg Q4dx4 iv, DAY 14", "result": "191 ± 5", "unit": "mm^3"}, {"measurement": "tumor volume (mm^3 ± SEM)", "setting": "[2]; Dose 3 mg/kg Q4dx4 iv, DAY 18", "result": "161 ± 7", "unit": "mm^3"}, {"measurement": "tumor volume (mm^3 ± SEM)", "setting": "[2]; Dose 3 mg/kg Q4dx4 iv, DAY 21", "result": "123 ± 15", "unit": "mm^3"}, {"measurement": "tumor volume (mm^3 ± SEM)", "setting": "[2]; Dose 3 mg/kg Q4dx4 iv, DAY 26", "result": "108 ± 16", "unit": "mm^3"}, {"measurement": "tumor volume (mm^3 ± SEM)", "setting": "[2]; Dose 3 mg/kg Q4dx4 iv, DAY 29", "result": "99 ± 14", "unit": "mm^3"}, {"measurement": "tumor volume (mm^3 ± SEM)", "setting": "[2]; Dose 3 mg/kg Q4dx4 iv, DAY 33", "result": "106 ± 17", "unit": "mm^3"}, {"measurement": "tumor volume (mm^3 ± SEM)", "setting": "[2]; Dose 3 mg/kg Q4dx4 iv, DAY 36", "result": "122 ± 22", "unit": "mm^3"}, {"measurement": "tumor volume (mm^3 ± SEM)", "setting": "[2]; Dose 3 mg/kg Q4dx4 iv, DAY 39", "result": "128 ± 23", "unit": "mm^3"}, {"measurement": "tumor volume (mm^3 ± SEM)", "setting": "[2]; Dose 3 mg/kg Q4dx4 iv, DAY 42", "result": "149 ± 25", "unit": "mm^3"}, {"measurement": "tumor volume (mm^3 ± SEM)", "setting": "[2]; Dose 3 mg/kg Q4dx4 iv, DAY 47", "result": "105 ± 19", "unit": "mm^3"}, {"measurement": "tumor volume (mm^3 ± SEM)", "setting": "[2]; Dose 3 mg/kg Q4dx4 iv, DAY 53", "result": "104 ± 30", "unit": "mm^3"}, {"measurement": "tumor volume (mm^3 ± SEM)", "setting": "[2]; Dose 3 mg/kg Q4dx4 iv, DAY 62", "result": "116 ± 47", "unit": "mm^3"}, {"measurement": "tumor volume (mm^3 ± SEM)", "setting": "[2]; Dose 3 mg/kg Q4dx4 iv, DAY 70", "result": "139 ± 54", "unit": "mm^3"}, {"measurement": "tumor volume (mm^3 ± SEM)", "setting": "[2]; Dose 5 mg/kg Q4dx4 iv, DAY 0", "result": "321 ± 8", "unit": "mm^3"}, {"measurement": "tumor volume (mm^3 ± SEM)", "setting": "[2]; Dose 5 mg/kg Q4dx4 iv, DAY 4", "result": "344 ± 14", "unit": "mm^3"}, {"measurement": "tumor volume (mm^3 ± SEM)", "setting": "[2]; Dose 5 mg/kg Q4dx4 iv, DAY 7", "result": "272 ± 7", "unit": "mm^3"}, {"measurement": "tumor volume (mm^3 ± SEM)", "setting": "[2]; Dose 5 mg/kg Q4dx4 iv, DAY 11", "result": "152 ± 13", "unit": "mm^3"}, {"measurement": "tumor volume (mm^3 ± SEM)", "setting": "[2]; Dose 5 mg/kg Q4dx4 iv, DAY 14", "result": "155 ± 13", "unit": "mm^3"}, {"measurement": "tumor volume (mm^3 ± SEM)", "setting": "[2]; Dose 5 mg/kg Q4dx4 iv, DAY 18", "result": "138 ± 11", "unit": "mm^3"}, {"measurement": "tumor volume (mm^3 ± SEM)", "setting": "[2]; Dose 5 mg/kg Q4dx4 iv, DAY 21", "result": "110 ± 9", "unit": "mm^3"}, {"measurement": "tumor volume (mm^3 ± SEM)", "setting": "[2]; Dose 5 mg/kg Q4dx4 iv, DAY 26", "result": "69 ± 16", "unit": "mm^3"}, {"measurement": "tumor volume (mm^3 ± SEM)", "setting": "[2]; Dose 5 mg/kg Q4dx4 iv, DAY 29", "result": "50 ± 13", "unit": "mm^3"}, {"measurement": "tumor volume (mm^3 ± SEM)", "setting": "[2]; Dose 5 mg/kg Q4dx4 iv, DAY 33", "result": "43 ± 14", "unit": "mm^3"}, {"measurement": "tumor volume (mm^3 ± SEM)", "setting": "[2]; Dose 5 mg/kg Q4dx4 iv, DAY 36", "result": "52 ± 16", "unit": "mm^3"}, {"measurement": "tumor volume (mm^3 ± SEM)", "setting": "[2]; Dose 5 mg/kg Q4dx4 iv, DAY 39", "result": "45 ± 14", "unit": "mm^3"}, {"measurement": "tumor volume (mm^3 ± SEM)", "setting": "[2]; Dose 5 mg/kg Q4dx4 iv, DAY 42", "result": "34 ± 15", "unit": "mm^3"}, {"measurement": "tumor volume (mm^3 ± SEM)", "setting": "[2]; Dose 5 mg/kg Q4dx4 iv, DAY 47", "result": "25 ± 14", "unit": "mm^3"}, {"measurement": "tumor volume (mm^3 ± SEM)", "setting": "[2]; Dose 5 mg/kg Q4dx4 iv, DAY 53", "result": "29 ± 16", "unit": "mm^3"}, {"measurement": "tumor volume (mm^3 ± SEM)", "setting": "[2]; Dose 5 mg/kg Q4dx4 iv, DAY 62", "result": "33 ± 18", "unit": "mm^3"}, {"measurement": "tumor volume (mm^3 ± SEM)", "setting": "[2]; Dose 5 mg/kg Q4dx4 iv, DAY 70", "result": "58 ± 30", "unit": "mm^3"}, {"measurement": "effect on growth of N87 gastric xenografts (in words)", "setting": "[2]; humanized ADCs, Q4dx4, doses of Tables 16 and 17", "result": "inhibited growth of N87 gastric xenografts in a dose-dependent manner"}]}]}
